Assay results as given in publication PMC4336329 (PLoS ONE, 2015).
Screen size: about 310,000 compounds; about 2,200 (0.71%) showed an effect of 50% or more. Effects have a minus sign here. Some of the results follow.

The molecules below were run against human ether-à-go-go-related gene (hERG) potassium channel (human, UniProt Q12809) (assay: primary screen, population patch clamp on CHO cells stably expressing hERG).
Sequence of human ether-à-go-go-related gene (hERG) potassium channel (Q12809 whole entry, looked up): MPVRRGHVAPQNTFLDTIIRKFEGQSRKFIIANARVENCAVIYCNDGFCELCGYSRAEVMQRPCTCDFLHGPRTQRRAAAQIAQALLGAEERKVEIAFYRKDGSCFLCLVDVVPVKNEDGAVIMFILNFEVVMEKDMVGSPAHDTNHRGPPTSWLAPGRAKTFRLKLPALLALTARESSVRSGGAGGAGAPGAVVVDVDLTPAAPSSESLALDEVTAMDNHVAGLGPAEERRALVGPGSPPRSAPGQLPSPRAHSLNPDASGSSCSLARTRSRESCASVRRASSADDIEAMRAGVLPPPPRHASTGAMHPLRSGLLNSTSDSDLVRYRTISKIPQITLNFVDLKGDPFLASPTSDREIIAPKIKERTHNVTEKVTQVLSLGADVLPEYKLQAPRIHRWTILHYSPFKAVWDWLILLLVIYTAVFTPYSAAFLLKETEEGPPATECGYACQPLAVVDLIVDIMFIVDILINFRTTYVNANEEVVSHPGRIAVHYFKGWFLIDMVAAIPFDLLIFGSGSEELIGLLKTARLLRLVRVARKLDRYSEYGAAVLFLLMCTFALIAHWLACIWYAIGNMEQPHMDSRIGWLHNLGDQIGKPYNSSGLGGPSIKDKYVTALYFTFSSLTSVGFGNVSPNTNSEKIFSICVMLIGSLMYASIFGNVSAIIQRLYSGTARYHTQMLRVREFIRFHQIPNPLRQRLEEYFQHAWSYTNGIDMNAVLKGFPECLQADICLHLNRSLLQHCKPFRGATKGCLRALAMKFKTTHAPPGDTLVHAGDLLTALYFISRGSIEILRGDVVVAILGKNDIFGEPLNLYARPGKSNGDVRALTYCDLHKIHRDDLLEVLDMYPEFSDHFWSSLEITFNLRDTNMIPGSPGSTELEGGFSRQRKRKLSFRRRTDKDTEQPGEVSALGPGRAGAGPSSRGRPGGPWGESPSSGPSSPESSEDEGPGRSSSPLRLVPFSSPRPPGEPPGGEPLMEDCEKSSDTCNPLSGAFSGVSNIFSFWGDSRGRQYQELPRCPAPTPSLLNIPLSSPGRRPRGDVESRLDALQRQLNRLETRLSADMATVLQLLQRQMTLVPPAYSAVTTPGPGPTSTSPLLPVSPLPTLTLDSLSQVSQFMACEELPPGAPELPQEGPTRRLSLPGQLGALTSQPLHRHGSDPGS

SMILES	hERG current change (%, negative = inhibition) at 1uM
Cc1ccc(-c2nc3ccccc3[nH]2)cn1	15.7%
CN(C)N(C(=O)c1cc(-c2cccs2)nn1-c1ccccc1)C1CCS(=O)(=O)C1 (centres unmarked)	8.14%
O=C(Nc1ccccc1-c1ccccc1)C1CCC1	16.6%
Cc1cc(N2CCN(C)CC2)nc(=S)[nH]1	10.6%
COC(=O)Cc1c(C)c2ccc(OCC(=O)N3CCC(C)CC3)c(C)c2oc1=O	1.92%
Nc1ccccc1OCCOc1ccccc1N	9.18%
Cn1c(=O)n(C)c2cc(NS(=O)(=O)c3ccc(C(C)(C)C)cc3)ccc21	10.2%
CCOC(=O)c1ccn(CSc2c(F)c(F)cc(F)c2F)n1	7.48%
CCN(CC)C(=O)c1cc2c(=O)n3cccc(C)c3nc2s1	16.4%
NC(=O)C1CCN(C(=O)CN(c2cccc(Cl)c2)S(=O)(=O)c2ccccc2)CC1	13.7%
CCCc1ncc(C(O)(c2ccccc2)c2ccc(C)cc2)n1C (centres unmarked)	8.82%
Cc1nc2cc(-c3ccccc3)ccc2o1	4.59%
CCCNC(=O)c1onc(CSc2ccc(F)cc2)c1C(=O)NCC1CC1	-4.01%
O=C(c1ccc(N2CCCCC2)c([N+](=O)[O-])c1)N1CCN(S(=O)(=O)c2ccccc2)CC1	-18%
CN(CC(=O)Nc1ccccc1Cl)C(=O)COC(=O)c1ccccc1[N+](=O)[O-]	6.6%
CCN(CC)CCn1c(=S)[nH]c2ccccc2c1=O	-2.59%
CCOC(=O)Cn1cc([N+](=O)[O-])c(OC)n1	12.2%
Cc1ccccc1/C=C/c1cccc[n+]1C.[I-]	17%
O=C(COC(=O)CCNS(=O)(=O)c1ccccc1F)Nc1nnc(-c2ccccc2)o1	8.19%
C=CCNC(=O)c1ccccc1NC(=O)c1cccc2ccccc12	16%
CCOC(=O)C1(Cc2ccccc2C)CCCN(C(=O)c2ccoc2)C1 (centres unmarked)	-8.32%
O=C(NC(=S)Nc1cc(C(F)(F)F)ccc1N1CCOCC1)c1sc2ccccc2c1Cl	6.08%
Cc1cc(N2CCCCC2)nc2ccc(NC(=O)c3ccc(Br)o3)cc12	5.31%

SMILES	hERG current change (%, negative = inhibition) at 1uM
CCN(c1ccc(OC)cc1)S(=O)(=O)N1CCCC(C(=O)NCc2cccc(C)c2)C1 (centres unmarked)	21.6%
Fc1ccc(Nc2cccc3nccnc23)cc1	-0.473%
CCn1cc(C(=O)Nc2ccc(NC(=O)c3ccco3)cc2)c(=O)c2ccc(C)nc21	-2.53%
COc1ccc(NC(=O)N2CC(C)OC(C)C2)cc1OC (centres unmarked)	9.39%
COc1ccccc1C(=O)OCCNC(=O)Cn1cnc2c1c(=O)n(C)c(=O)n2C	17.9%
CCOc1ccc(NC(=O)c2csc3c2CCCC3)cc1	8.02%
Cc1ccccc1-n1ccnc1SCC(=O)NCc1ccco1	3.13%
Cc1ccc(NC(=O)CN(C(=O)N2CCN(C)CC2)S(=O)(=O)c2ccc(C)cc2)cc1	-2.04%
COc1ccc(CNc2ccc(Br)cc2)cc1	9.54%
Cc1nc2ccccc2nc1N1CCCC1	1.6%
O=c1cc(CSc2nc3cc(Cl)ccc3o2)nc2sccn12	15.3%
CN(C)C(=O)N=NC(=O)N(C)C	10.6%
O=c1cc(C23CC4CC(CC(C4)C2)C3)[nH][nH]1	7.14%
Cc1cnc(NCCc2ccccc2)s1	17.8%
O=C(CN1C(=O)NC2(CCCC2)C1=O)Nc1ccccc1N1CCCCC1	12.9%
CCCCOc1ccc(/C=N/NC(=O)C2CCCNC2=O)cc1 (centres unmarked)	8.65%
CCc1nc(NCCN)c(C#N)c2c1CSC(C)(C)C2	6.83%
COc1ccc(Nc2oc(-c3ccc(F)cc3)nc2C#N)cc1	12.2%
CC(=O)Nc1ccc(/C=N/NC(=O)CNS(=O)(=O)c2ccccc2)cc1	11%
CCc1cc(=O)oc2cc(C)cc(OCc3nn[nH]n3)c12	2.42%
C=Cc1ccc(C(=O)NC2CCCN(Cc3ccccc3F)C2)cc1 (centres unmarked)	11.6%
CCc1cc2c(=O)n(Cc3ccco3)c(SCc3c(C)noc3C)nc2s1	1.03%
O=C(N/C(=C\c1ccc(Cl)cc1)C(=O)N1CCOCC1)c1ccco1	-2.55%

SMILES	hERG current change (%, negative = inhibition) at 1uM
O=C(/C=C/NNC(=O)c1ccccc1O)c1ccccc1	7.98%
COCCSc1ccccc1C(=O)NCc1ccc(S(N)(=O)=O)cc1	-0.445%
CCOC(=O)C1(CCOc2ccccc2)CCN(Cc2cccc(OCCO)c2)CC1	-84.4%
O=C(CCN1C(=O)COc2ccccc21)NCCCN1CCN(c2ccccc2F)CC1	-24.7%
CC(=O)Nc1ccc2ccc3cccc4ccc1c2c34	6.56%
Cc1ccccc1Cn1ccc(NC(=O)c2cc3nc(-c4ccco4)cc(C(F)(F)F)n3n2)n1	14%
CCOc1ccc(Cl)cc1CNCCCSc1nc(C)cc(C)n1.Cl	-14.8%
CCn1cc([N+](=O)[O-])c(C(=O)N2N=C(c3ccccc3)CC2c2ccc([N+](=O)[O-])cc2)n1 (centres unmarked)	2.85%
Cc1cccc(-n2nnc(C(=O)NCc3ccco3)c2N)c1	9.15%
O=[N+]([O-])c1ccc(N2CCCC2)nc1	13.1%
COc1cc(Cl)c(C)cc1NC(=O)CN1CCN(C(=O)C2CC2)CC1	-33.9%
COc1ccc(CN2CSC(=S)N(Cc3ccccc3)C2)cc1	11.8%
C/C(=C\C(=O)c1ccc(Br)cc1)NCc1ccccc1	18.5%
O=C(Nc1ccc2c(c1)OCO2)c1cnn2cccnc12	8.33%
CCc1ccc(C2C(=O)c3ccccc3C2=O)cc1	12.4%
CCOC(=O)CSCC(NC(=O)OC(C)(C)C)C(=O)OCC (centres unmarked)	7.77%
O=C(O)c1ccc(NC(=O)c2ccccc2NC(=O)c2cccc(F)c2)cc1	16.6%
C=CCN(c1ccccc1Cl)S(=O)(=O)c1cc(C(=O)N2CCCC2)ccc1Cl	9.06%
COCc1cccc(C2=CC(=O)C[C@H](c3ccc(OC)cc3)C2)c1	12.5%
COc1ccc(NC(C)=O)cc1S(=O)(=O)Nc1ccccc1C(=O)NCCc1ccccc1	12%
O=C(CCc1nc(-c2ccccc2)no1)NC1CCCCC1	0.0707%
COc1ccc(CN2CCCC(C(=O)c3ccc(Cl)cc3)C2)cc1Cn1cncn1 (centres unmarked)	-59.9%
Cc1ccc(S(=O)(=O)NCCCC(=O)C=[N+]=[N-])cc1	10.1%

SMILES	hERG current change (%, negative = inhibition) at 1uM
CC1CCc2sc(NC(=S)NC(=O)c3ccccc3)c(C#N)c2C1 (centres unmarked)	-5.64%
O=C(CSc1n[nH]c(-c2ccccc2)n1)N1CCOCC1	14.7%
Cc1csc(NC(=O)c2oc3ccccc3c2C)n1	13.2%
Cc1ccc(C)c(N(C)C(=O)c2cc3c(=O)[nH]c4ccc(C)cc4c3s2)c1	4.33%
COc1ccc(N2CCN(C(=O)CCCN3C(=O)c4cccc5cccc(c45)C3=O)CC2)cc1	20.3%
COc1ccc(NC(=O)CSc2nc(NS(=O)(=O)c3ccc(C)cc3)cc(=O)[nH]2)cc1	9.68%
Cn1c(C(=O)NCc2ccccc2)cc2oc3ccccc3c21	7.9%
CCc1nc2ccccc2c(=O)n1-c1ccc2ccccc2c1	0.76%
COc1ccc(NC(=O)CSc2nnc(-c3ccccc3F)n2C2CC2)cc1S(N)(=O)=O	12.4%
Cc1cc(C)n(C(=O)Cn2nc([N+](=O)[O-])c(Br)c2C)n1	9.42%
CC(C)N1CCC(N2CCN(Cc3ccc(-c4ccccc4Cl)o3)CC2CCO)CC1 (centres unmarked)	-26.4%
CC(=O)Nc1ccc(C(=O)OCC(=O)NC2CCCCCCC2)cc1	14.1%
Cc1cccn2c(=O)c(C(=O)NC3CCCCC3)c(O)nc12	42.3%
OCCC1CN(Cc2ccc(Oc3ncccn3)cc2)CCN1C1CCCCC1 (centres unmarked)	9.05%
Cc1cc(C)cc(NC(=O)Nc2ccc3c(c2)CCC3)c1	16%
O=C(NCC1CCCO1)c1cccc(S(=O)(=O)NCc2ccccc2)c1 (centres unmarked)	7.67%
O=C(CN1CCN(C(=O)COc2cccc(F)c2)CC1)Nc1ccc(Cl)c(C(F)(F)F)c1	2.21%
Cc1nn(C)c(C(=O)Nc2ccn(C34CC5CC(CC(C5)C3)C4)n2)c1[N+](=O)[O-]	3.27%
CC(C(=O)OCC(=O)c1ccccc1)N1C(=O)c2ccccc2C1=O (centres unmarked)	8.42%
NC(=O)CC1Nc2cccc3cccc(c23)NC1=O (centres unmarked)	5.48%
Cc1ccccc1OCC1Cn2c(nc3c2c(=O)[nH]c(=O)n3C)O1 (centres unmarked)	-7.23%
O=C1C=CC(=O)N1c1ccc(OC(F)F)cc1	5.49%
O=C(CN1CCN(c2ccc(O)cc2)CC1)Nc1cc([N+](=O)[O-])ccc1Cl	11.3%
